Experimental data from the supplement of paper PMC4967469.
Lines with a small IC50 respond at low doses; a fit beyond the top or the lowest dose is shown as a bound at that dose. AUC sums up the same curve from the lowest dose to the 256-fold higher top dose: 1 means no effect, lower means more sensitive. For some of these results: The top dose, if marked as inferred, was derived from the fitted curves, not read from the paper.

Key:
Experiment in all cases: Viability of human cancer cell lines after 72 h of drug (GDSC screen)
Nutlin-3a = compound: COc1ccc(C2=N[C@@H](c3ccc(Cl)cc3)[C@@H](c3ccc(Cl)cc3)N2C(=O)N2CCNC(=O)C2)c(OC(C)C)c1 [Nutlin-3a]
Experimental: (§1)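 Human cancer cell lines in 384-well plates, medium with 10% serum, drug for 72 h over a 256-fold dose range (nine 2-fold or five 4-fold steps up to the top dose). Adherent lines were fixed and stained with the nucleic acid dye Syto60, suspension lines read with resazurin; signal relative to control wells, capped at 0 and 100%. One two-parameter sigmoid per drug and line, fitted in a mixed model over all curves with the slope shared within a line.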

CP724714 = compound: COCC(=O)NC/C=C/c1ccc2ncnc(Nc3ccc(Oc4ccc(C)nc4)c(C)c3)c2c1 [CP724714]; conditions: top dose 10.24 µM; top dose inferred
Experimental: as §1

STF-62247 = compound: Cc1cccc(Nc2nc(-c3ccncc3)cs2)c1 [STF-62247]; conditions: top dose 10.24 µM; top dose inferred
Experimental: as §1

CX-5461 = compound: Cc1cnc(CNC(=O)c2c(=O)c3ccc(N4CCCN(C)CC4)nc3n3c2sc2ccccc23)cn1 [CX-5461]; conditions: top dose 10.24 µM; top dose inferred
Experimental: as §1

Obatoclax mesylate = compound: COC1=CC(c2cc3ccccc3[nH]2)=N/C1=C\c1[nH]c(C)cc1C [Obatoclax mesylate]; conditions: top dose 16 µM
Experimental: as §1

Cell Line | AUC (Nutlin-3a) | IC50 (Nutlin-3a) [µM] | AUC (CP724714) | IC50 (CP724714) [µM] | AUC (STF-62247) | IC50 (STF-62247) [µM] | AUC (CX-5461) | IC50 (CX-5461) [µM] | AUC (Obatoclax mesylate) | IC50 (Obatoclax mesylate) [µM]
8-MG-BA (glioma, adherent, top dose 8 µM) | 0.987 | > 8 |  |  |  |  |  |  |  | 
42-MG-BA (glioma, adherent, top dose 8 µM) | 0.977 | > 8 |  |  |  |  |  |  |  | 
201T (lung adenocarcinoma, adherent, top dose 8 µM) | 0.977 | > 8 |  |  |  |  |  |  |  | 
451Lu (melanoma, adherent, top dose 8 µM) | 0.967 | > 8 |  |  |  |  |  |  |  | 
639-V (bladder, adherent, top dose 8 µM) | 0.95 | > 8 |  |  |  |  |  |  |  | 
647-V (bladder, adherent, top dose 8 µM) | 0.987 | > 8 |  |  |  |  |  |  |  | 
697 (lymphoblastic leukaemia, suspension, top dose 8 µM) | 0.747 | 2.13 |  |  |  |  |  |  |  | 
786-0 (kidney, adherent, top dose 8 µM) | 0.965 | > 8 |  |  |  |  |  |  |  | 
5637 (bladder, adherent, top dose 8 µM) | 0.988 | > 8 |  |  |  |  |  |  |  | 
8305C (thyroid, adherent, top dose 8 µM) | 0.982 | > 8 |  |  |  |  |  |  |  | 
8505C (thyroid, adherent, top dose 8 µM) | 0.959 | > 8 |  |  |  |  |  |  |  | 
23132-87 (stomach, adherent, top dose 8 µM) | 0.931 | > 8 |  |  |  |  |  |  |  | 
A3-KAW (B-cell lymphoma, suspension, top dose 8 µM) | 0.888 | 5.83 |  |  |  |  |  |  |  | 
A4-Fuk (B-cell lymphoma, suspension, top dose 8 µM) | 0.92 | > 8 |  |  |  |  |  |  |  | 
A101D (melanoma, adherent, top dose 8 µM) | 0.754 | 3.26 |  |  |  |  |  |  |  | 
A172 (glioma, adherent, top dose 4 µM) | 0.844 |  |  |  |  |  |  |  |  | 
A253 (head and neck, adherent, top dose 8 µM) | 0.989 | > 8 |  |  |  |  |  |  |  | 
A388 (skin, adherent, top dose 8 µM) | 0.978 | > 8 |  |  |  |  |  |  |  | 
A427 (non-small cell lung carcinoma, adherent, top dose 8 µM) | 0.876 | > 8 |  |  |  |  |  |  |  | 
A498 (kidney, adherent, top dose 8 µM) | 0.93 | > 8 |  |  |  |  |  |  |  | 
A673 (rhabdomyosarcoma, adherent, top dose 8 µM) | 0.987 | > 8 |  |  |  |  |  |  |  | 
A704 (kidney, adherent, top dose 8 µM) | 0.967 | > 8 |  |  |  |  |  |  |  | 
A2780 (ovary, semi-adherent, top dose 8 µM) | 0.957 | > 8 |  |  |  |  |  |  |  | 
AGS (stomach, adherent, top dose 8 µM) | 0.731 | 2.1 |  |  |  |  |  |  |  | 

Cell Line | AUC (Nutlin-3a) | IC50 (Nutlin-3a) [µM] | AUC (CP724714) | IC50 (CP724714) [µM] | AUC (STF-62247) | IC50 (STF-62247) [µM] | AUC (CX-5461) | IC50 (CX-5461) [µM] | AUC (Obatoclax mesylate) | IC50 (Obatoclax mesylate) [µM]
ALL-PO (lymphoblastic leukaemia, suspension, top dose 8 µM) | 0.807 | 4.38 |  |  |  |  |  |  |  | 
ALL-SIL (T-cell leukaemia, suspension, top dose 8 µM) | 0.952 | > 8 |  |  |  |  |  |  |  | 
AM-38 (glioma, semi-adherent, top dose 8 µM) | 0.818 | 4.64 |  |  |  |  |  |  |  | 
AMO-1 (haematopoietic neoplasm, suspension, top dose 8 µM) | 0.86 | 5.22 |  |  |  |  |  |  |  | 
ARH-77 (myeloma, suspension, top dose 8 µM) | 0.975 | > 8 |  |  |  |  |  |  |  | 
ASH-3 (thyroid, adherent, top dose 8 µM) | 0.988 | > 8 |  |  |  |  |  |  |  | 
ATN-1 (T-cell lymphoblastic leukaemia, suspension, top dose 8 µM) | 0.749 | 2.45 |  |  |  |  |  |  |  | 
AU565 (breast, adherent, top dose 8 µM) | 0.982 | > 8 |  |  |  |  |  |  |  | 
AsPC-1 (pancreas, adherent, top dose 4 µM) | 0.87 | > 4 |  |  |  |  |  |  |  | 
BALL-1 (B-cell leukaemia, suspension, top dose 8 µM) | 0.994 | > 8 |  |  |  |  |  |  |  | 
BB30-HNC (head and neck, adherent, top dose 8 µM) | 0.91 | > 8 |  |  |  |  |  |  |  | 
SW1990 (pancreas, adherent) |  |  | 0.975 | > 10.2 | 0.98 | > 10.2 | 0.982 | > 10.2 | 0.321 | 0.287
Saos-2 (osteosarcoma, adherent) |  |  | 0.981 | > 10.2 | 0.981 | > 10.2 | 0.981 | > 10.2 | 0.33 | 0.272
SiHa (cervix, adherent) |  |  | 0.986 | > 10.2 | 0.986 | > 10.2 | 0.987 | > 10.2 | 0.686 | 3.61
T47D (breast, adherent) |  |  | 0.924 | > 10.2 | 0.977 | > 10.2 | 0.95 | > 10.2 | 0.524 | 1.2
T84 (large intestine, adherent) |  |  | 0.979 | > 10.2 | 0.981 | > 10.2 | 0.891 | > 10.2 | 0.281 | 0.237
T98G (glioma, adherent) |  |  | 0.981 | > 10.2 | 0.985 | > 10.2 | 0.987 | > 10.2 | 0.656 | 2.61
T-24 (bladder, adherent) |  |  | 0.986 | > 10.2 | 0.984 | > 10.2 | 0.966 | > 10.2 | 0.654 | 2.62
T-T (oesophagus, adherent) |  |  | 0.971 | > 10.2 | 0.986 | > 10.2 | 0.974 | > 10.2 | 0.115 | < 0.0625
TCCSUP (bladder, adherent) |  |  | 0.984 | > 10.2 | 0.985 | > 10.2 | 0.984 | > 10.2 | 0.543 | 1.33
TGBC11TKB (stomach, adherent) |  |  | 0.877 | 8.2 | 0.977 | > 10.2 | 0.99 | > 10.2 | 0.714 | 3.7
TMK-1 (stomach, adherent) |  |  | 0.984 | > 10.2 | 0.986 | > 10.2 | 0.986 | > 10.2 | 0.249 | 0.181
TOV-21G (ovary, adherent) |  |  | 0.984 | > 10.2 | 0.978 | > 10.2 | 0.984 | > 10.2 | 0.963 | > 16
TOV-112D (ovary, adherent) |  |  | 0.916 | > 10.2 | 0.969 | > 10.2 | 0.669 | 1.89 | 0.106 | < 0.0625

Cell Line | AUC (Nutlin-3a) | IC50 (Nutlin-3a) [µM] | AUC (CP724714) | IC50 (CP724714) [µM] | AUC (STF-62247) | IC50 (STF-62247) [µM] | AUC (CX-5461) | IC50 (CX-5461) [µM] | AUC (Obatoclax mesylate) | IC50 (Obatoclax mesylate) [µM]
TT2609-C02 (thyroid, adherent) |  |  | 0.985 | > 10.2 | 0.983 | > 10.2 | 0.62 | 1.4 | 0.168 | 0.0896
TT (thyroid, adherent) |  |  | 0.981 | > 10.2 | 0.981 | > 10.2 | 0.983 | > 10.2 | 0.818 | 14
TYK-nu (ovary, adherent) |  |  | 0.961 | > 10.2 | 0.947 | > 10.2 | 0.953 | > 10.2 | 0.204 | 0.123
U031 (kidney, adherent) |  |  | 0.969 | > 10.2 | 0.978 | > 10.2 | 0.969 | > 10.2 | 0.161 | 0.0874
U251 (glioma, adherent) |  |  | 0.977 | > 10.2 | 0.957 | > 10.2 | 0.8 | 4.67 | 0.318 | 0.318
U-2-OS (osteosarcoma, adherent) |  |  | 0.936 | > 10.2 | 0.983 | > 10.2 | 0.788 | 4.92 | 0.852 | 14.1
U-118-MG (glioma, adherent) |  |  | 0.971 | > 10.2 | 0.985 | > 10.2 | 0.986 | > 10.2 | 0.363 | 0.393
UACC-62 (melanoma, adherent) |  |  | 0.966 | > 10.2 | 0.973 | > 10.2 | 0.988 | > 10.2 | 0.347 | 0.379
UACC-893 (breast, adherent) |  |  | 0.83 | 9.65 | 0.96 | > 10.2 | 0.979 | > 10.2 | 0.652 | 3.05
UM-UC-3 (bladder, adherent) |  |  | 0.944 | > 10.2 | 0.953 | > 10.2 | 0.678 | 1.94 | 0.286 | 0.26
UMC-11 (lung carcinoid, adherent) |  |  | 0.985 | > 10.2 | 0.984 | > 10.2 | 0.879 | 8.56 | 0.533 | 1.22
VM-CUB-1 (bladder, adherent) |  |  | 0.983 | > 10.2 | 0.98 | > 10.2 | 0.984 | > 10.2 | 0.444 | 
VMRC-MELG (melanoma, adherent) |  |  | 0.987 | > 10.2 | 0.985 | > 10.2 | 0.987 | > 10.2 | 0.527 | 1.19
VMRC-RCW (kidney, adherent) |  |  | 0.98 | > 10.2 | 0.975 | > 10.2 | 0.986 | > 10.2 | 0.111 | < 0.0625
VMRC-RCZ (kidney, adherent) |  |  | 0.976 | > 10.2 | 0.97 | > 10.2 | 0.962 | > 10.2 | 0.366 | 
WM35 (melanoma, adherent) |  |  | 0.976 | > 10.2 | 0.963 | > 10.2 | 0.682 | 2.07 | 0.053 | < 0.0625
WM278 (melanoma, adherent) |  |  | 0.981 | > 10.2 | 0.984 | > 10.2 | 0.981 | > 10.2 | 0.197 | 0.109
WM793B (melanoma, adherent) |  |  | 0.975 | > 10.2 | 0.984 | > 10.2 | 0.951 | > 10.2 | 0.093 | < 0.0625
WM1552C (melanoma, adherent) |  |  | 0.985 | > 10.2 | 0.986 | > 10.2 | 0.869 | 9.51 | 0.092 | < 0.0625
WM-115 (melanoma, adherent) |  |  | 0.942 | > 10.2 | 0.949 | > 10.2 | 0.876 | > 10.2 | 0.719 | 4.86
YAPC (pancreas, adherent) |  |  | 0.984 | > 10.2 | 0.985 | > 10.2 | 0.972 | > 10.2 | 0.729 | 5.34
YKG-1 (glioma, adherent) |  |  | 0.978 | > 10.2 | 0.957 | > 10.2 | 0.76 | 3.65 | 0.225 | 0.156
huH-1 (liver, adherent) |  |  | 0.978 | > 10.2 | 0.983 | > 10.2 | 0.984 | > 10.2 | 0.729 | 5.31
